Assay results taken from the supplement of paper PMC9588766.
Where a name gives a salt, the structure may show the parent alone. Whole data set: some 1,900 compounds, median “cell viability of compound + 1 nM pemigatinib relative to pemigatinib-only (DMSO) wells” near 0.95, cut for the lowest 2% near 0.22. The list shows a part of the results.

What follows are compounds tested on PDC-DUC18828 (assay: cell viability of compound + 1 nM pemigatinib relative to pemigatinib-only (DMSO) wells (fraction); PDC-DUC18828 is a patient-derived cholangiocarcinoma cell line; higher = less growth inhibition). Settings: first compound 1 µM; pemigatinib concentration 1 nM; 72 h.
Procedure: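 Selleck Bioactive library screen in the patient-derived FGFR2 fusion-positive ICC cell line PDC-DUC18828 (500 cells/well). Each compound was tested at 1 uM with 1 nM pemigatinib, in triplicate, for 72 h. Viability was read by CellTiter-Glo and normalised to plate DMSO controls. Value is the paper's averaged normalised viability.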

Compound | cell viability
OC(c1cc(C(F)(F)F)nc2c(C(F)(F)F)cccc12)C1CCCCN1 (configuration not stated) [Mefloquine HCl] + CCN1C(=O)N(c2c(F)c(OC)cc(OC)c2F)Cc2cnc3[nH]c(CN4CCOCC4)cc3c21 [pemigatinib] | 0.986
COc1ccc2c(c1)c(CC(=O)N1CCOCC1)c(C)n2C(=O)c1ccc(Cl)cc1 + CCN1C(=O)N(c2c(F)c(OC)cc(OC)c2F)Cc2cnc3[nH]c(CN4CCOCC4)cc3c21 [pemigatinib] | 0.94
CN(C)Cc1cccc(N=C(c2ccccc2)c2c(O)[nH]c3cc(C(=O)N(C)C)ccc23)c1 + CCN1C(=O)N(c2c(F)c(OC)cc(OC)c2F)Cc2cnc3[nH]c(CN4CCOCC4)cc3c21 [pemigatinib] | 0.994
CS(=O)(=O)c1ccc(-c2cnc(N)c(C(=O)Nc3ccccc3)n2)cc1 + CCN1C(=O)N(c2c(F)c(OC)cc(OC)c2F)Cc2cnc3[nH]c(CN4CCOCC4)cc3c21 [pemigatinib] | 0.97
COc1c(C)c2c(c(O)c1C/C=C(\C)CCC(=O)O)C(=O)OC2 [Mycophenolic acid] + CCN1C(=O)N(c2c(F)c(OC)cc(OC)c2F)Cc2cnc3[nH]c(CN4CCOCC4)cc3c21 [pemigatinib] | 0.504
O=C(Oc1ccccc1C(=O)O)c1ccccc1O [Sasapyrine] + CCN1C(=O)N(c2c(F)c(OC)cc(OC)c2F)Cc2cnc3[nH]c(CN4CCOCC4)cc3c21 [pemigatinib] | 0.968
O=C(NCCN1CCOCC1)c1ccc(Cl)cc1 + CCN1C(=O)N(c2c(F)c(OC)cc(OC)c2F)Cc2cnc3[nH]c(CN4CCOCC4)cc3c21 [pemigatinib] | 0.858
Cc1cc(Cl)ccc1OCCCC(=O)NO [Droxinostat] + CCN1C(=O)N(c2c(F)c(OC)cc(OC)c2F)Cc2cnc3[nH]c(CN4CCOCC4)cc3c21 [pemigatinib] | 0.941
Cc1ccc(-n2sc(=O)n(Cc3ccc(F)cc3)c2=O)cc1 + CCN1C(=O)N(c2c(F)c(OC)cc(OC)c2F)Cc2cnc3[nH]c(CN4CCOCC4)cc3c21 [pemigatinib] | 0.823
C/C(=C\C(=O)Nc1ccccc1C(=O)O)c1ccc2ccccc2c1 + CCN1C(=O)N(c2c(F)c(OC)cc(OC)c2F)Cc2cnc3[nH]c(CN4CCOCC4)cc3c21 [pemigatinib] | 1.03
O=C(c1ccc(/C=C/c2n[nH]c3ccccc23)cc1)N1CCNCC1 + CCN1C(=O)N(c2c(F)c(OC)cc(OC)c2F)Cc2cnc3[nH]c(CN4CCOCC4)cc3c21 [pemigatinib] | 0.999
C[C@H](Cc1cc2c(c(C(N)=O)c1)N(CCCO)CC2)NCCOc1ccccc1OCC(F)(F)F [Silodosin] + CCN1C(=O)N(c2c(F)c(OC)cc(OC)c2F)Cc2cnc3[nH]c(CN4CCOCC4)cc3c21 [pemigatinib] | 1.06
CN(C)CCOc1ccc(-c2nc(-c3ccncc3)c(-c3ccc4c(c3)CC/C4=N\O)[nH]2)cc1 + CCN1C(=O)N(c2c(F)c(OC)cc(OC)c2F)Cc2cnc3[nH]c(CN4CCOCC4)cc3c21 [pemigatinib] | 1.16
Nc1c(CC(=O)O)cccc1C(=O)c1ccc(Br)cc1 [Bromfenac Sodium] + CCN1C(=O)N(c2c(F)c(OC)cc(OC)c2F)Cc2cnc3[nH]c(CN4CCOCC4)cc3c21 [pemigatinib] | 0.905
CC1(C)CC[C@]2(C(=O)O)CC[C@]3(C)C(=CC[C@@H]4[C@@]5(C)CC[C@H](O)C(C)(C)[C@@H]5CC[C@]43C)[C@@H]2C1 [Oleanolic Acid] + CCN1C(=O)N(c2c(F)c(OC)cc(OC)c2F)Cc2cnc3[nH]c(CN4CCOCC4)cc3c21 [pemigatinib] | 0.932
O=C(O)CCCCC(CCSCc1ccccc1)SCc1ccccc1 (configuration not stated) + CCN1C(=O)N(c2c(F)c(OC)cc(OC)c2F)Cc2cnc3[nH]c(CN4CCOCC4)cc3c21 [pemigatinib] | 1
O=c1c(-c2ccc(O)cc2)coc2cc(O)ccc12 [Daidzein] + CCN1C(=O)N(c2c(F)c(OC)cc(OC)c2F)Cc2cnc3[nH]c(CN4CCOCC4)cc3c21 [pemigatinib] | 0.988
C[C@H]1O[C@@H](n2cc(F)c(=O)[nH]c2=O)[C@H](O)[C@@H]1O [Doxifluridine] + CCN1C(=O)N(c2c(F)c(OC)cc(OC)c2F)Cc2cnc3[nH]c(CN4CCOCC4)cc3c21 [pemigatinib] | 1.02
CC(C)(C)c1nc(-c2cccc(NS(=O)(=O)c3c(F)cccc3F)c2F)c(-c2ccnc(N)n2)s1 + CCN1C(=O)N(c2c(F)c(OC)cc(OC)c2F)Cc2cnc3[nH]c(CN4CCOCC4)cc3c21 [pemigatinib] | 0.884

Compound | cell viability
Cc1cc(/C=C2/SC(=S)NC2=O)c(C)n1-c1cccnc1 [Optovin] + CCN1C(=O)N(c2c(F)c(OC)cc(OC)c2F)Cc2cnc3[nH]c(CN4CCOCC4)cc3c21 [pemigatinib] | 0.931
Cc1cc(C)c(Nc2ccnc(Nc3ccc(C#N)cc3)n2)c(C)c1 [Dapivirine (TMC120)] + CCN1C(=O)N(c2c(F)c(OC)cc(OC)c2F)Cc2cnc3[nH]c(CN4CCOCC4)cc3c21 [pemigatinib] | 0.85
Nc1ncnc2c1ncn2[C@@H]1O[C@H](CO)[C@@H](O)[C@H]1O [Adenosine] + CCN1C(=O)N(c2c(F)c(OC)cc(OC)c2F)Cc2cnc3[nH]c(CN4CCOCC4)cc3c21 [pemigatinib] | 1.02
O=C(c1ccc(Nc2nccc(-c3cc4ccccc4s3)n2)cc1)N1CCC(N2CCCC2)CC1 [IKK-16 (IKK Inhibitor VII)] + CCN1C(=O)N(c2c(F)c(OC)cc(OC)c2F)Cc2cnc3[nH]c(CN4CCOCC4)cc3c21 [pemigatinib] | 0.83
Clc1ccc(CSC(Cn2ccnc2)c2ccc(Cl)cc2Cl)cc1 (configuration not stated) [Sulconazole Nitrate] + CCN1C(=O)N(c2c(F)c(OC)cc(OC)c2F)Cc2cnc3[nH]c(CN4CCOCC4)cc3c21 [pemigatinib] | 0.906
CC(=O)O[C@@]12CO[C@@H]1C[C@H](O)[C@@]1(C)C(=O)[C@H](O)C3=C(C)[C@@H](OC(=O)[C@H](O)[C@@H](NC(=O)OC(C)(C)C)c4ccccc4)C[C@@](O)([C@@H](OC(=O)c4ccccc4)[C@H]21)C3(C)C [Docetaxel] + CCN1C(=O)N(c2c(F)c(OC)cc(OC)c2F)Cc2cnc3[nH]c(CN4CCOCC4)cc3c21 [pemigatinib] | 0.245
O=C(/C=C/c1ccccc1)NC(NC(=S)Nc1cccc2cccnc12)C(Cl)(Cl)Cl (configuration not stated) [Salubrinal] + CCN1C(=O)N(c2c(F)c(OC)cc(OC)c2F)Cc2cnc3[nH]c(CN4CCOCC4)cc3c21 [pemigatinib] | 0.88
CO[C@H]1C[C@@H]2CC[C@@H](C)[C@@](O)(O2)C(=O)C(=O)N2CCCC[C@H]2C(=O)O[C@H]([C@H](C)C[C@@H]2CC[C@@H](OCCO)[C@H](OC)C2)CC(=O)[C@H](C)/C=C(\C)[C@@H](O)[C@@H](OC)C(=O)[C@H](C)C[C@H](C)/C=C/C=C/C=C/1C [Everolimus (RAD001)] + CCN1C(=O)N(c2c(F)c(OC)cc(OC)c2F)Cc2cnc3[nH]c(CN4CCOCC4)cc3c21 [pemigatinib] | 0.56
Fc1ccc(Cl)cc1-c1nc(Nc2ccncc2)c2nccnc2n1 + CCN1C(=O)N(c2c(F)c(OC)cc(OC)c2F)Cc2cnc3[nH]c(CN4CCOCC4)cc3c21 [pemigatinib] | 0.97
CC1CNc2c(cccc2S(=O)(=O)N[C@@H](CCCNC(=N)N)C(=O)N2CC[C@@H](C)C[C@@H]2C(=O)O)C1 (some centres not stated) [Argatroban] + CCN1C(=O)N(c2c(F)c(OC)cc(OC)c2F)Cc2cnc3[nH]c(CN4CCOCC4)cc3c21 [pemigatinib] | 1.12
CN(C)CCN(Cc1ccccc1)c1ccccn1 [Tripelennamine HCl] + CCN1C(=O)N(c2c(F)c(OC)cc(OC)c2F)Cc2cnc3[nH]c(CN4CCOCC4)cc3c21 [pemigatinib] | 0.834
COc1ccccc1N1CCN(CCN(C(=O)C2CCCCC2)c2ccccn2)CC1 + CCN1C(=O)N(c2c(F)c(OC)cc(OC)c2F)Cc2cnc3[nH]c(CN4CCOCC4)cc3c21 [pemigatinib] | 1.03
Oc1ccc(OC2CCCCO2)cc1 (configuration not stated) [Deoxyarbutin] + CCN1C(=O)N(c2c(F)c(OC)cc(OC)c2F)Cc2cnc3[nH]c(CN4CCOCC4)cc3c21 [pemigatinib] | 1.06
Nc1cccc2c1C(=O)N(C1CCC(=O)NC1=O)C2=O (configuration not stated) [Pomalidomide] + CCN1C(=O)N(c2c(F)c(OC)cc(OC)c2F)Cc2cnc3[nH]c(CN4CCOCC4)cc3c21 [pemigatinib] | 1.04
O=C1Nc2ccccc2/C1=C1/Nc2ccccc2C1=O [Indirubin] + CCN1C(=O)N(c2c(F)c(OC)cc(OC)c2F)Cc2cnc3[nH]c(CN4CCOCC4)cc3c21 [pemigatinib] | 0.939
O=C(O)C(O)Cc1ccc(O)c(O)c1 (configuration not stated) [Sodium Danshensu] + CCN1C(=O)N(c2c(F)c(OC)cc(OC)c2F)Cc2cnc3[nH]c(CN4CCOCC4)cc3c21 [pemigatinib] | 0.951
COc1cc(C(=O)O)ccc1NC(=O)[C@@H]1N[C@@H](CC(C)(C)C)[C@](C#N)(c2ccc(Cl)cc2F)[C@H]1c1cccc(Cl)c1F [Idasanutlin (RG-7388)] + CCN1C(=O)N(c2c(F)c(OC)cc(OC)c2F)Cc2cnc3[nH]c(CN4CCOCC4)cc3c21 [pemigatinib] | 0.942
N[C@@H](Cc1cc(I)c(Oc2cc(I)c(O)c(I)c2)c(I)c1)C(=O)O [L-Thyroxine] + CCN1C(=O)N(c2c(F)c(OC)cc(OC)c2F)Cc2cnc3[nH]c(CN4CCOCC4)cc3c21 [pemigatinib] | 1.02
